According to PubChem BioAssay (NCI):
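Briefly, cells in 96-well plates were exposed to five compound concentrations for 48 h, and endpoints were estimated by linear interpolation. GI50: concentration for 50% inhibition of growth. TGI denotes the concentration required for complete inhibition of growth.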

These compounds were tested on NCI-H322M lung (assay: DTP human tumour cell line panel, 48 h).
For `Cc1ccc(CNC(=O)Cc2ccc3c(c2)CN(C2CCC(=O)NC2=O)C3=O)cc1` (stereo unspecified), the GI50 was less than 0.01 µM and the TGI was 0.59 µM.
`COc1ccc2[nH]c(O)c(N=Nc3nc(-c4ccc(Cl)cc4)cs3)c2c1` was tested, and the GI50 was 4.74 µM and the TGI was 41.8 µM.
`Cn1cc(-c2cc3nc(-c4cn(C)c5ncc(Br)cc45)cc(N)n3n2)c2cc(F)ccc21` gave a GI50 of 5.75 µM and a TGI of 23.1 µM.
